# According to article PMC4336329 (PLoS ONE, 2015):
# About 14,000 (4.5%) of roughly 310,000 compounds showed an effect of 50% or more. The effect is printed as a negative number. This is one part of the list.
# Target: human ether-à-go-go-related gene (hERG) potassium channel (human, UniProt Q12809)
# Assay: primary screen, population patch clamp on CHO cells stably expressing hERG
# 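Also: peak tail current of the secondary pulse compared with the same well before compound.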
# Sequence of human ether-à-go-go-related gene (hERG) potassium channel (Q12809 whole entry, looked up): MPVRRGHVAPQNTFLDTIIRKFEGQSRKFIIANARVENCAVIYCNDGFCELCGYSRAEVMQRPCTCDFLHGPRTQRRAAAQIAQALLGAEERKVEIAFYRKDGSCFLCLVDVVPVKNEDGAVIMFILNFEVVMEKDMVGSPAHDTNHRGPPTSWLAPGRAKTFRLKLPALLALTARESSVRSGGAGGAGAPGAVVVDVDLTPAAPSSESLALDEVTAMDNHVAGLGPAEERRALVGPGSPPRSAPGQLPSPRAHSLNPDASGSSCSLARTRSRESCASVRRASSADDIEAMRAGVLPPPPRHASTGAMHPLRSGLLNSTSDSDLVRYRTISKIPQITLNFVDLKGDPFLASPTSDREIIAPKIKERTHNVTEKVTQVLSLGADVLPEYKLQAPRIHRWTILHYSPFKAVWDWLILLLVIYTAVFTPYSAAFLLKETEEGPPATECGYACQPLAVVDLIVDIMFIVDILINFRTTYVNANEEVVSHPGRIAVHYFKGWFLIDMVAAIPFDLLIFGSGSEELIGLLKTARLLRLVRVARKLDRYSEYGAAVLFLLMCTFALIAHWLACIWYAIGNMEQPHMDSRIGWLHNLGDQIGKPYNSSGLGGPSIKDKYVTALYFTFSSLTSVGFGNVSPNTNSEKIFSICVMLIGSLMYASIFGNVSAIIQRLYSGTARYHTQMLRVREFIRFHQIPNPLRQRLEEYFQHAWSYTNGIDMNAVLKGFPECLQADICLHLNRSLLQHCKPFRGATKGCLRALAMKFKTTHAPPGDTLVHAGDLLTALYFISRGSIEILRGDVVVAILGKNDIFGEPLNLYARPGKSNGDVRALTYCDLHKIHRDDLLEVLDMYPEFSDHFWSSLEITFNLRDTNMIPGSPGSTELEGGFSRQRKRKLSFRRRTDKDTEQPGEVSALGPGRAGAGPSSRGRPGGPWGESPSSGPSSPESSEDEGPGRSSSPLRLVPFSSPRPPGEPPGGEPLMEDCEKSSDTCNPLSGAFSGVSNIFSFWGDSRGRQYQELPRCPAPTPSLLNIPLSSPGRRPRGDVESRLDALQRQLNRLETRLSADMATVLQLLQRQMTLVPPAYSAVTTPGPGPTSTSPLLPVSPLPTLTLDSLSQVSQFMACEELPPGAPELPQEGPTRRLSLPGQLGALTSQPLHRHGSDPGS
row,SMILES,"hERG current change (%, negative = inhibition) at 10uM [%]"
1,CC(Sc1nnc(NCc2ccccc2)s1)C(=O)Nc1ccc2c(c1)C(=O)c1ccccc1C2=O (stereo not drawn),1.78
2,COC(=O)c1cc2c(ccn2-c2ccc(F)cc2)n1Cc1ccc(OC(C)=O)cc1,6.74
3,O=C(Cc1ccccc1)NNc1c2ccccc2nc2ccccc12,12.3
4,COc1ccccc1-n1cc2c([N+](=O)[O-])cc([N+](=O)[O-])cc2n1,23.5
5,COc1ccc(CN2CCN(Cc3ccc4ccccc4c3)CC2)cc1OC.O=C(O)C(=O)O,-67
6,CC(C)(C)NC(=O)c1ccccc1-c1nc(-c2ccccc2Cl)no1,-9.82
7,Brc1cccc(CNCC2CCCO2)c1 (stereo not drawn),4.72
8,C/C(Cn1cnc([N+](=O)[O-])n1)=N/NC(=O)COc1ccccc1Cl,-5.36
9,O=C(Nc1cc(Sc2ccccn2)cc([N+](=O)[O-])c1)c1cccc(Cl)c1,2.34
10,c1ccc(-c2ccc(CN3CCSCC3)cc2)cc1,7.72
11,O=C(CSc1nncn1-c1ccccc1)NC1CCCCC1,14.9
12,O=C(CCCn1nnnc1CN1CCOCC1)N1CCN(c2ccccc2F)CC1,11.5
13,NC(=NCCc1c[nH]c2ccccc12)NC(=O)c1ccc(F)cc1,-6.62
14,CCC(c1nnnn1C(C)(C)C)N(Cc1cccs1)Cc1cc2cc(C)c(C)cc2n2nnnc12 (stereo not drawn),5.37
15,Cc1cccc(OCC(=O)N2CCN(C(=O)Cc3ccccc3)CC2)c1,-13.2
16,CCCn1c(=O)c(C(=O)Nc2cc(C)ccn2)c(O)c2ccccc21,19.3
17,CC(=O)N(\C=C/C=C/C=C1\Sc2ccccc2C1=O)c1ccccc1,-3.47
18,CCN(CC)C(=O)Cn1cc(S(=O)(=O)CC(=O)N2CCCCCC2)c2ccccc21,5.51
19,CCn1cnc2cc(NCc3ccc(C)cc3)ccc21,-40.4
20,COc1cc(/C=N/Nc2nc(C)cc(C)n2)cc(OC)c1OC,16.8
21,O=C(Nc1ncc2c(n1)-c1ccccc1CC2)c1ccc(F)cc1,-3.91
22,CCOC(=O)C1CCN(c2c(C(=O)c3ccccc3)cnc3ccc(CC)cc23)CC1,-5.99

row,SMILES,"hERG current change (%, negative = inhibition) at 10uM [%]"
1,CC(C)CCN=CC1=C(O)CC(c2ccccc2)CC1=O (stereo not drawn),10.3
2,O=C1Nc2ccccc2/C1=C/c1ccc([N+](=O)[O-])cc1,-8.67
3,COc1cccc(NC(=O)COC(=O)c2ccc(F)cc2F)c1,-25
4,CN(C)C(=O)c1ccc(COc2ccccc2Br)o1,4.49
5,O=C1CC2(CCN(C(=O)c3ccccc3[N+](=O)[O-])CC2)Oc2ccccc21,-62
6,O=C(CSc1nc2ccccc2[nH]1)c1ccc2c(c1)OCO2,-0.0917
7,CC(c1cccs1)N(C(=O)Nc1ccccc1)C1CCCCC1 (stereo not drawn),-23.3
8,COc1ccccc1Nc1nc2ccc(C)cc2cc1C#N,10.9
9,Cc1ccc(C(=O)Oc2cc(-c3ccccc3)no2)cc1,4.43
10,CCN(CC)S(=O)(=O)c1cccc(C(=O)OCC(=O)N2CC(=O)Nc3ccccc32)c1,-27.2
11,Cc1nc(SCC(=O)Nc2c(C)n(C)n(-c3ccccc3)c2=O)n[nH]1,10.7
12,CCCCCCOC(=O)C[N+](C)(C)CCOC1CC2CCC1(C)C2(C)C.[Cl-] (stereo not drawn),-78.1
13,N#Cc1ccc(-c2ccccc2)nc1SCC(=O)c1cccc(Cl)c1,22.6
14,CC1CN(CCOc2ccc(F)cc2)CC(C)O1.O=C(O)C(=O)O (stereo not drawn),6.81
15,Cc1nc(N)nc(SCc2ccc([N+](=O)[O-])cc2)c1N,-74.6
16,CN(C(=O)c1ccc2c(c1)SC1=NS(=O)(=O)CCN12)C(c1ccccc1)c1ccccc1,-61
17,CC(=O)Nc1ccccc1NC(=O)c1ccc(C)c(C)c1,10.9
18,COc1ccc(-c2cc([C@H]3[C@H]4C=CC[C@@H](C)[C@@H]4C(=O)N3Cc3ccccc3)ccc2F)cc1,24.3
19,O=C1c2cccnc2C(=O)N1Cc1ccco1,6.6
20,CSc1ncc(CN2CCCC(C(=O)c3sccc3C)C2)cn1 (stereo not drawn),-55.2
21,COCCNC(=O)C(=O)N/N=C/c1ccccc1C(F)(F)F,9.03
22,OCC1(CO)COC2(CCCC2)N1,1.42

row,SMILES,"hERG current change (%, negative = inhibition) at 10uM [%]"
1,Cn1c(=O)c2ccccc2n(CC(=O)NCCC2=CCCCC2)c1=O,17.2
2,CCOC(=O)N1CCc2c(sc3c2c(=O)n(Cc2ccccc2)c(=O)n3Cc2ccccc2F)C1,0.366
3,C/C(=N\NC(=O)c1ccn(C)n1)c1cccc(NC(=O)c2ccncc2)c1,-1.9
4,Cc1ccc(-n2nc(C)c(C3(O)C(=O)N(C)c4ccccc43)c2N)cc1 (stereo not drawn),-49.9
5,Cc1cccc(NC(=O)CN2CCN(C(=O)c3c(C)nn(Cc4ccccc4)c3C)CC2)c1C,-20.4
6,O=C(c1ccc(N2CCCS2(=O)=O)cc1)N1CCN(c2ccc(F)cc2)CC1,-28.9
7,C=CCn1c(SCC(=O)Nc2nnc(CC)s2)nnc1-c1ccncc1,10.6
8,CCCCCCCCCCOC(=O)Cn1c(COc2ccc(Cl)cc2)[n+](C)c2ccccc21.[Cl-],-76.2
9,COc1ccc(CC(=O)Nc2ccc(C)c(S(=O)(=O)N3CCCCCC3)c2)cc1,-21.6
10,O=c1[nH]c(=O)n([C@H]2C[C@H](O)[C@@H](CO)O2)cc1F,16.7
11,Cc1nc2sc(C(N)=O)c(N)c2c(C)c1CC(=O)c1ccccc1,0.983
12,CC(=O)Nc1ccc(SCC(=O)Nc2ccc(Cl)cn2)cc1,19.5
13,COc1ccc(C(C)=O)cc1COc1ncnc2ccccc12,-1.57
14,CCOc1cccc(CN2CCC(n3nccc3NC(=O)C3CC3)CC2)c1O,-64.2
15,Cc1ccc(OCC(=O)N(C)CC(=O)Nc2ccc(F)c(F)c2F)cc1,2.13
16,Cc1nc(NC(=O)c2ccccc2)sc1-c1csc(NCc2ccco2)n1,-0.662
17,COc1ccc(C(CNC(=O)c2ccc(NS(=O)(=O)c3ccc(F)cc3)cc2)N2CCOCC2)cc1 (stereo not drawn),6.52
18,Nc1ncnc2c1ncn2C1OC(C(=O)NC2CC2)C(O)C1O (stereo not drawn),6.12
19,Cc1ccc([N+](=O)[O-])cc1NC(=O)c1ccoc1C,6.81
20,COc1ccc(C(=O)NN=C2CCCC2)c(OC)c1,9.62
21,Nc1cc(-c2ccc(OC(F)(F)F)cc2)nn1-c1ccc(Cl)c(Cl)c1,9.26
22,O=S(=O)(c1ccc(Br)s1)N1CCC(Cc2ccccc2)CC1,4.76

row,SMILES,"hERG current change (%, negative = inhibition) at 10uM [%]"
1,CCCCN(C)C(=O)CCCc1c[nH]c2ccccc12,3.23
2,CCC(=O)N1CCc2cc(S(=O)(=O)NCCC(=O)N3CCc4ccccc4C3)ccc21,-23.2
3,O=C(CN1C(=O)NC2(CCCCC2)C1=O)NCc1ccc2c(c1)OCO2,18.9
4,CCOc1ccc2[nH]c(=O)c(CN(Cc3ccco3)Cc3nnnn3Cc3ccccc3)cc2c1,-20.6
5,CCS(=O)(=O)Nc1ccc(C2=NN(C(=O)c3ccco3)C(c3cccs3)C2)cc1 (stereo not drawn),-1.38
6,O=C(c1ccccc1)c1ccc(OCC(O)CN2CCOCC2)cc1 (stereo not drawn),-10.8
7,Cc1cc(NC(=O)C2CCCCC2C(=O)O)no1 (stereo not drawn),4.57
8,CC(C)CNC(=O)COC(=O)c1c2c(nc3ccccc13)/C(=C/c1cccs1)CC2,6.36
9,Cc1ccc(NC(=O)CN2C(=O)N/C(=C/c3ccc(C)s3)C2=O)cc1,-5.54
10,CC(C)C[C@@H](CN(N=O)[C@@H](Cc1ccccc1)CN(C)N=O)N(CCc1ccccc1)N=O.[Na+],-11.2
11,CCC(C)NCc1ccc(C(=O)OC)o1.Cl (stereo not drawn),22
12,N#Cc1ccc(NC(=O)CSc2n[nH]c(=O)n2C2CC2)cc1,-1.4
13,CCN(CC1CCCN(CCc2cccc(F)c2)C1)C(=O)c1ccc(CSC)o1 (stereo not drawn),-74.5
14,Cc1ccc2cccc(NC(=S)NC(=O)c3ccn(C)n3)c2n1,6.66
15,O=C(C[n+]1ccc2ccccc2c1)c1ccc(NC(=O)c2ccccc2)cc1.[Br-],-0.135
16,N/C(=N\OC(=O)c1ccc2c(c1)OCO2)c1ccc(Br)cc1,12.3
17,CNc1ccccc1C(=O)OCC(=O)N(CCOC)c1c(N)n(CC(C)C)c(=O)[nH]c1=O,9.81
18,O=C1CCCN1C(=O)COc1ccc([N+](=O)[O-])cc1,-12.9
19,CCCC(C)NC(=O)c1ccc2[nH]c3c(c2c1)CC(C)CC3 (stereo not drawn),8.9
20,COC(=O)c1ccccc1NC(=O)COC(=O)C1CCCCC1,5.26
21,O=C(O)CSCC(=O)NC1CCCc2ccccc21 (stereo not drawn),25.5
